From PMC7819943, “Rice protein-binding microarrays: a tool to detect cis-acting elements near promoter regions in rice”
The other results are listed elsewhere or left out.

The sequences below were run against T1, OsWOX13 (Oryza sativa, UniProt Q5QMM3 1-267) (assay: protein-binding microarray (RPBM); PBS, 2% BSA, 51.3 ng/ul salmon testes DNA, 50 uM zinc acetate, 200 nM TF, 25 C, 1 h; high values mean tight binding). Conditions: protein: recombinant; tags: N-terminal polyhistidine and DsRed monomer fusion (pET32a); label: CyDye5-dUTP incorporated in the synthesized complementary strand; 3' TTTTT single-stranded linker to array surface; dsDNA, one strand shown.
T1 sequence: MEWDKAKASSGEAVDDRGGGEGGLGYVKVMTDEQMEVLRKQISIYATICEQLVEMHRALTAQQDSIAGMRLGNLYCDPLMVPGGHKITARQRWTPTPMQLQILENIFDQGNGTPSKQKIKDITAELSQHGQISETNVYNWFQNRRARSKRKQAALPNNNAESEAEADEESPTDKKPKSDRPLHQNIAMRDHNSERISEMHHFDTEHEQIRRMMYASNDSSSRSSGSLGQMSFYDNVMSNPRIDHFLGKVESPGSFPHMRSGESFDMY
Method in brief: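 The binding signal is fluorescence intensity per feature, in arbitrary units, read on an Axon 4000B scanner. Polyhistidine- and DsRed-tagged transcription factors (N-terminal fusions) from E. coli BL21-CodonPlus were purified on Ni–NTA and applied at 200 nM for 1 h at 25 °C to a double-stranded, BSA-blocked custom Agilent array in buffer with 50 µM zinc acetate.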

Point of comparison: “AATTAATTAAAACAAAACGGAGACGACGAGTACTAGTGTACGGAGTCACCTAGTGCAG”, binding signal 16700 fluorescence intensity (a.u.). Against it:
- TTTATCACTCAATTGACCCATCAATTCAGCTGGCTTACTCCGGAGTCACCTAGTGCAG — lower, 6200 fluorescence intensity (a.u.)
- CCATGATTAATTAATATTTAATAATAATATATGTTCTTCTCGGAGTCACCTAGTGCAG — higher, 50700 fluorescence intensity (a.u.)
- TGAAAATCGCATACTAATTAGCTATTAGTCATGAGCTCTTCGGAGTCACCTAGTGCAG — lower, 9100 fluorescence intensity (a.u.)
- ACAAGTTGTAATTTATAGAGTGATATATTACATATTGATCCGGAGTCACCTAGTGCAG — lower, 9120 fluorescence intensity (a.u.)
- AGTGTCTAAATTGGTAATCAAACTCCAACACTATTTCATACGGAGTCACCTAGTGCAG — higher, 20300 fluorescence intensity (a.u.)
- CACTTTGATTTTACACACATTGTCAAATATCCTACATAAACGGAGTCACCTAGTGCAG — lower, 5030 fluorescence intensity (a.u.)
- TTTCAATTTTAGTCAAACTTTCAATTTTAACGTGAAACTACGGAGTCACCTAGTGCAG — lower, 3450 fluorescence intensity (a.u.)
- TAGTAGATGGAGAATGTTTTAATTTATACTGAAACACGTTCGGAGTCACCTAGTGCAG — lower, 3910 fluorescence intensity (a.u.)
- CATTAACGGCTAGAAAATTGGTGGATGTGTATATCTGGATCGGAGTCACCTAGTGCAG — lower, 5050 fluorescence intensity (a.u.)
- TTACGGCTAATTATTCTTTCAGTGGTAGACGACGTACCCCCGGAGTCACCTAGTGCAG — lower, 8580 fluorescence intensity (a.u.)
- AGTTCAGATTTGACATATACAGATTCTAGACATTACCAGTCGGAGTCACCTAGTGCAG — lower, 7040 fluorescence intensity (a.u.)
- GGGATTAAATTGGGATCCTTGGCACAACTTAGACTCTCACCGGAGTCACCTAGTGCAG — higher, 23800 fluorescence intensity (a.u.)
- TGTGGTTTAATGATTTATAAATTTAAAATATGTAGGTTTTCGGAGTCACCTAGTGCAG — lower, 12000 fluorescence intensity (a.u.)
- AATGATTGCCCTTTTAGTGAACTCCAAATTGGGCGAAGTGCGGAGTCACCTAGTGCAG — higher, 49700 fluorescence intensity (a.u.)
- AATTAATTTGTCATTAGTAAATGTTTACTGTAGCACCACACGGAGTCACCTAGTGCAG — higher, 42000 fluorescence intensity (a.u.)
- CGTGTCAAATCTAAAATTTAAATTCGTATAAATTGTTCCACGGAGTCACCTAGTGCAG — lower, 6860 fluorescence intensity (a.u.)
- GAATGATTGTGGATGATGAAATAAATACTGCTCTTGTCAGCGGAGTCACCTAGTGCAG — higher, 33400 fluorescence intensity (a.u.)
- CAGCCTTGACACAATTTGTAACTTTATTCCTTGAGTTATGCGGAGTCACCTAGTGCAG — lower, 5290 fluorescence intensity (a.u.)
- ACAACGAATTTAGACAGATCTTTATCCAGATTTGTTAGGACGGAGTCACCTAGTGCAG — lower, 5910 fluorescence intensity (a.u.)
- TTGGCGATTGATTGGGGAAAGGAAACTTTGCTAGGTCAATCGGAGTCACCTAGTGCAG — higher, 53500 fluorescence intensity (a.u.)
- ACTTTCCATCACATCACATCACATTCAAAACTTTTCTACTCGGAGTCACCTAGTGCAG — lower, 4460 fluorescence intensity (a.u.)
- ATTCACTTCCACAGATTGACGAGAGGAGCAAGCATGACCGCGGAGTCACCTAGTGCAG — lower, 12900 fluorescence intensity (a.u.)
- TTTGAATTACATATAATTGGTGTAAGCTCCAAGGCTTGAACGGAGTCACCTAGTGCAG — higher, 20800 fluorescence intensity (a.u.)
- GTTGATGCGGATTGTAATGAATTTGCCAAGATATCGAGAACGGAGTCACCTAGTGCAG — lower, 3420 fluorescence intensity (a.u.)
- CATTAACATATTTATAAATTTGTGTAATGCTAGAAAATCTCGGAGTCACCTAGTGCAG — lower, 11200 fluorescence intensity (a.u.)
- CATATTACAATTTGATTAGTTTGTGCTAAGTTAATGAAAACGGAGTCACCTAGTGCAG — lower, 7080 fluorescence intensity (a.u.)
- TGAAAATAATAATAATTTGATAACATGTTTTCTTCCAAGTCGGAGTCACCTAGTGCAG — lower, 7230 fluorescence intensity (a.u.)
- CCGGCAATCCAATCATTTCCCGTACCGGAAGCCGCAGCCTCGGAGTCACCTAGTGCAG — lower, 10400 fluorescence intensity (a.u.)
- TTAACTGATTGATGCTCAAGTGGATTGATCGATTTTGTTGCGGAGTCACCTAGTGCAG — higher, 65500 fluorescence intensity (a.u.)
- AGTCAGTTTATTGGCTTATATGATTTATAAGTCAGTGGATCGGAGTCACCTAGTGCAG — lower, 8380 fluorescence intensity (a.u.)
- TCAACTGATCCAATTAATTCATCGATCGTCCCTGAATTCACGGAGTCACCTAGTGCAG — lower, 10100 fluorescence intensity (a.u.)
- ACCCTCCATTCAGTGTATTTTAATTAACTAACACCATTGCCGGAGTCACCTAGTGCAG — lower, 4560 fluorescence intensity (a.u.)
- AGCACTGTAATAGAAATTCCAATCAGATGGCTCATGAACTCGGAGTCACCTAGTGCAG — lower, 5800 fluorescence intensity (a.u.)
- ATAGATTGATTTGATAATTTCCTTGAGAGTAACACATGGGCGGAGTCACCTAGTGCAG — higher, 65500 fluorescence intensity (a.u.)
- AGCTGACTGCCAATTTCAAGAACATACCGGTCACTCTTGCCGGAGTCACCTAGTGCAG — higher, 20700 fluorescence intensity (a.u.)
- ATCCTAAATTGAAACTGAATCTACAGATGCGCATGGGTCTCGGAGTCACCTAGTGCAG — higher, 33100 fluorescence intensity (a.u.)
- AGATGACGACTTTATTGATTCTCTCTGTGTTTACAAAGTGCGGAGTCACCTAGTGCAG — lower, 7540 fluorescence intensity (a.u.)
- ATTACGACTTGGGACGTCAATTAAACTTGACGTGAAGTTGCGGAGTCACCTAGTGCAG — lower, 3540 fluorescence intensity (a.u.)
- GACTTCATAATTAACAGTGCACTGGGTCCATCCAATTGAGCGGAGTCACCTAGTGCAG — lower, 9720 fluorescence intensity (a.u.)
- ATGATATTTATATTAAATTAGATAAATATATGTGGTGCATCGGAGTCACCTAGTGCAG — lower, 13300 fluorescence intensity (a.u.)
- GGGGATAATTTTGTAGCTCGATGACAAGTTGATTTGGTGTCGGAGTCACCTAGTGCAG — higher, 19200 fluorescence intensity (a.u.)
